Source: paper PMC4336329 (PLoS ONE, 2015)
Among all 310,000 compounds or so, about 14,000 (4.5%) showed an effect of 50% or more. The effect is printed as a negative number. The list shows a part of the results.

target: human ether-à-go-go-related gene (hERG) potassium channel (human, UniProt Q12809); assay: primary screen, population patch clamp on CHO cells stably expressing hERG
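Note: peak tail current of the secondary pulse compared with the same well before compound.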

human ether-à-go-go-related gene (hERG) potassium channel, sequence (Q12809 whole entry, looked up): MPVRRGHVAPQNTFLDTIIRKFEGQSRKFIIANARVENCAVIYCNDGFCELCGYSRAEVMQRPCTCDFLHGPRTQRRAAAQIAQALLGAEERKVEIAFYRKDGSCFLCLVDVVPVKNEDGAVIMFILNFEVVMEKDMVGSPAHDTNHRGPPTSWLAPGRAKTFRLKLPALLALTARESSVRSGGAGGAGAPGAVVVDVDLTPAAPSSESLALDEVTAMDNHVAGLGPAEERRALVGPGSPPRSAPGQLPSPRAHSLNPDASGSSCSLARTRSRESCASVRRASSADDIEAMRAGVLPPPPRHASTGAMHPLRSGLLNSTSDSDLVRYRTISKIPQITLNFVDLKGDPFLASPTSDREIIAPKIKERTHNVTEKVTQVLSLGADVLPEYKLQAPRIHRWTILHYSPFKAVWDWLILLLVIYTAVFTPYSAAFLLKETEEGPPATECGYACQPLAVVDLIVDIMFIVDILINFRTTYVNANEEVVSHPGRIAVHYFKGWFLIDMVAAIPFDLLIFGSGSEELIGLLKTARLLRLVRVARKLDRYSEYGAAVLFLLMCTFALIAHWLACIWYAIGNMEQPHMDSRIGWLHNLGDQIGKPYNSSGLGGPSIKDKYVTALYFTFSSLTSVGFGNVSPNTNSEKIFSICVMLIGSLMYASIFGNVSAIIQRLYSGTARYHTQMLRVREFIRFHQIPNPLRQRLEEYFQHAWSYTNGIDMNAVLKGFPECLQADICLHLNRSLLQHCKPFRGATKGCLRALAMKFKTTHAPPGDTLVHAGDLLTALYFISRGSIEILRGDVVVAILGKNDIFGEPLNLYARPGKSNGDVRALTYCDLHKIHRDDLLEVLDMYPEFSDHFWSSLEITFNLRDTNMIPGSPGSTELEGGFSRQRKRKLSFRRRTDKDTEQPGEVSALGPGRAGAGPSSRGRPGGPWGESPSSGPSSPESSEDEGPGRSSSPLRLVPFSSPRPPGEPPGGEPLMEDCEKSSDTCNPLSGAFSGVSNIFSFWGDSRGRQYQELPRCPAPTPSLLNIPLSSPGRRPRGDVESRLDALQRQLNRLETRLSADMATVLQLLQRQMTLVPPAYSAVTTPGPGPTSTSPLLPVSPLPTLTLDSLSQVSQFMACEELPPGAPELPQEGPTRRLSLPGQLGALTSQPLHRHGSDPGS

Compound | hERG current change (%, negative = inhibition) at 10uM [%]
CSc1ncnc2c1ccn2CC(=O)Nc1ccc(C)c(C)c1 | 14.3
CCc1nnc(NC(=O)CCC(=O)N2CCN(CCc3ccccc3)CC2)s1 | -9.65
COc1ccccc1CNc1cc(CSc2ccc(Cl)cc2)nc(C)n1 | -0.554
COc1ccc(C(=O)O)cc1NS(=O)(=O)c1cccc2nsnc12 | 7.93
Cc1ccc(C(=O)NCCNS(=O)(=O)c2ccccc2)cn1 | 12.7
COc1ccc(NC2CC(=O)N(c3cccc(C)c3)C2=O)cc1 (stereo not drawn) | 12.9
CCN(CC(=O)Nc1ccc(NC(C)=O)cc1)C(=O)c1ccc2c(c1)OCO2 | 5.64
CCn1c(NC(=O)c2ccccc2)c(-c2cccs2)c(=O)c2ccccc21 | 0.859
CCCCc1nc2sc3c(c2c(=O)n1NC(=O)c1ccco1)CC(C)(C)OC3 | 6.37
CNC(=O)c1ccc2nc(NC(C)=O)sc2c1 | -14.8
Cc1nc(SCc2cccc(F)c2)c2oc3ccccc3c2n1 | 20.2
Cn1c(SCC(=O)NC2CC2)nnc1-c1ccc(Cl)cc1 | 3.25
COc1cc(C)nc(Oc2ccc(OCc3ccccc3)nn2)n1 | -0.784
Cc1c(C(=O)N2CCN(c3ccc([N+](=O)[O-])cc3)CC2)sc2ncn(CC(=O)N3CCOCC3)c(=O)c12 | -62.2
CCNC(=O)CSc1nc2ccccc2c(=O)n1-c1cccc(OC)c1 | 32.7
O=S(=O)(c1ccccc1)N(CC1CO1)c1cccc2ccccc12 (stereo not drawn) | -11.9
CCOC(=O)c1c(C)[nH]c(C)c1C(=O)COC(=O)[C@@H](NC(=O)c1ccccc1OCC)C(C)C | -10.7
CC(=O)n1cc([C@H]2C=C(C(=O)N3CCN(Cc4ccccc4)CC3)O[C@@H](OCc3ccc(CO)cc3)C2)c2ccccc21 | -24
COc1ccc(NS(=O)(=O)c2cccc(N3CC(O)=C(c4ccccc4)C3=N)c2)cc1 | 40.4

Compound | hERG current change (%, negative = inhibition) at 10uM [%]
CC(/C=C1\SC(=S)N(CCC(=O)Nc2cccc(C(=O)O)c2)C1=O)=C\c1ccccc1 | 10.9
COC(C[C@H](O)C[C@H](O)[C@H](C)OCc1ccccc1)OC | 9.09
CSCCC(NC(=O)c1ccco1)C(=O)N1CC=C(c2ccccc2)CC1 (stereo not drawn) | -48
CCOc1ccc(/C=C2\CCCc3c2nc2ccccc2c3C(=O)O)cc1OC | 4.76
O=C1CSC(=S)N1/N=C/c1cccc(C(F)(F)F)c1 | 7.26
Cc1ccc(C2=Nc3cccnc3C(c3ccccc3)=NN2)cc1 | 0.802
C/C(CC(=O)Nc1ccc2c(c1)OCO2)=N\NC(=O)c1ccc(N)cc1 | 5.8
COC(=O)NCc1cccc(CNC(=O)OC)c1 | 3.66
COCC(=O)OC/C(O)=C(\C#N)c1nc2ccccc2[nH]1 | 11
Cn1ncc(Cl)c1C(=O)N1CCN(c2ncccn2)CC1 | 13.7
CC1CN(S(=O)(=O)c2ccc(C(=O)Nc3ccc(S(=O)(=O)N4CCOCC4)cc3)cc2)CC(C)O1 (stereo not drawn) | 19.9
CCOc1ccc(C(=O)Oc2ccc(NC(C)=O)cc2)cc1 | 13.2
Cc1cc(=O)oc(C)c1C(=O)NNC(=O)C1(C)CC1Br (stereo not drawn) | 22.3
OC(CNCc1ccc2c(c1)OCO2)COc1ccc(F)cc1 (stereo not drawn) | -55.7
Cc1ccc(C(=O)NNC(=S)Nc2cccc(Cl)c2Cl)cc1[N+](=O)[O-] | 22
O=C(c1cccc(S(=O)(=O)Nc2ccccc2F)c1)N1CCN(c2ccccc2F)CC1 | -21.5
C=CCn1c(O)c(C(C)=NCCC2=CCCCC2)c(=O)[nH]c1=O | 0.12
Nc1cc(=O)[nH]c(SCc2ccccc2Cl)n1 | 3.76
CC(=O)Nc1ccn(Cc2c(F)cccc2Cl)n1 | 13.5

Compound | hERG current change (%, negative = inhibition) at 10uM [%]
Cc1ccc(NC(=O)CSc2ncn(-c3ccccc3)n2)cc1C | -0.35
Cc1cc(N2CCN(c3ccccc3)CC2)n2nnnc2n1 | -3.56
Cc1ccc(C(=O)COc2ccc3c(C)cc(=O)oc3c2)cc1 | -1.49
O=C(NC1CCN(C(=S)Nc2ccccc2)CC1)C1CCCCC1 | -15.2
CN1CCN(Cc2ccc(OC(F)(F)F)cc2)CC1 | -38.1
CCC(NC(=O)c1cc(COc2ccc(Cl)cc2OC)on1)c1ccncc1 (stereo not drawn) | -24
CCc1ccc(CN(C)C(=O)c2ccc3c(c2)OCCO3)cc1 | 6.09
O=C(O)c1ccc(Cl)c(S(=O)(=O)N2CCCC2)c1 | 15.5
COc1ccc(CC(=O)NC2CCCCCC2)c(OC)c1 | -3.09
CC(C)NC(=O)c1cccc(C(F)(F)F)c1 | -10.7
CC(NC(=O)COC(=O)CNC(=O)c1ccc(-c2ccccc2)cc1)c1ccccc1 (stereo not drawn) | 11.8
O=C(CSc1ncccn1)Nn1cnnc1 | 8.45
CCN1C(=O)C2(C(C#N)=C(N)Oc3cc(C)oc(=O)c32)c2ccccc21 (stereo not drawn) | 4.58
CC(=O)c1c(C)[nH]c(C(=O)OCC(=O)Nc2ccc(Cl)c(S(=O)(=O)N(C)C)c2)c1C | -17.6
Cc1ccc(-n2nnc3c(=O)n(CC(=O)NCc4ccccc4)cnc32)cc1 | -15.5
CCc1cc(=O)oc2cc(C)cc(OCC(=O)N[C@@H](CSCc3ccccc3)C(=O)O)c12 | 4.48
Cc1ccc(NN2C(=O)C=CC2=O)cc1 | 0.632
O=C1C=C(NNC(=O)c2ccccc2Br)CCC1 | 13.2
Cc1ccc2oc(=O)n(Cc3ccc(OC(C)C)cc3)c2c1 | -0.385
